Whole data set: some 33,000 sequences, median “E-score (-0.5 to 0.5)” near -0.043, cut for the highest 2% near 0.37. The list shows a part of the results.
Molecular target: T1, Upc2 (UniProt Q12151)
T1 sequence: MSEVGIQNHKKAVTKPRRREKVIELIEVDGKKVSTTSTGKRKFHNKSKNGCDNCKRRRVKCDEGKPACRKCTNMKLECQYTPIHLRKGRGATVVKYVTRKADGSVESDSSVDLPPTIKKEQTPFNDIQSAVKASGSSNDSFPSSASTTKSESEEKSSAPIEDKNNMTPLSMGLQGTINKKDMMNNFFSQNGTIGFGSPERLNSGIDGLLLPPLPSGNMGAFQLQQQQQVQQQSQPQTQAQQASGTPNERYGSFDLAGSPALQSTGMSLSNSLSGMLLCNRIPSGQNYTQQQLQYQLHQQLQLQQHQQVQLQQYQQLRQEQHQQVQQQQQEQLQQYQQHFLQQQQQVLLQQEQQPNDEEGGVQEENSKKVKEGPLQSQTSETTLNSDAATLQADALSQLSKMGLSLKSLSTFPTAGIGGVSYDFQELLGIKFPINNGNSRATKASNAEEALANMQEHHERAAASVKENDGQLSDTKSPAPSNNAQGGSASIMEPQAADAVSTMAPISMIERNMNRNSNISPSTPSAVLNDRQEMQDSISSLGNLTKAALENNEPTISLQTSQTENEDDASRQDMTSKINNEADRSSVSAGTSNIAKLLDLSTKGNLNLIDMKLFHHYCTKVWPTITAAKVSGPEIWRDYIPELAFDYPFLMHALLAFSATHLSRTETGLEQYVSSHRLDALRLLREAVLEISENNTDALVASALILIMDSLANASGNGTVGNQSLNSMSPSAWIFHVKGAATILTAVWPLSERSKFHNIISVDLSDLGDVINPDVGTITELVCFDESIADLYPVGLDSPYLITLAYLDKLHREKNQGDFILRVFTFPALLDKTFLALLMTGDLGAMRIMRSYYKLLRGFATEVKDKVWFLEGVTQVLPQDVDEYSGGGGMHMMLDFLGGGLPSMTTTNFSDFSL
Assay: PBM E-score (8-mer binding enrichment) (E-score (-0.5 to 0.5)); higher = stronger / more preferred TF binding; most listed sequences are background and not binding sites
Conditions: protein concentration: 200 nM; construct: GST-full length
Procedure, shortened: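 Using PURExpress in vitro transcription/translation, GST-tagged yeast transcription factors were made in full-length or DNA-binding-domain form. These were applied at about 100-200 nM to double-stranded universal all-10-mer Agilent arrays, and bound protein was detected with fluorescent anti-GST. Scans were normalised with masliner before the Universal PBM Analysis Suite assigned E-scores to ungapped eight-base words pooled with their reverse complements.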

Sequence	PBM E-score
CACCCTAC	0.0343
CTGGCGCC	-0.13
CGTGATCC	-0.24
CTGAGCTC	-0.175
CGGGGAGA	-0.235
CCCTAAAG	-0.18
GCATATAA	0.179
CTCGCTCA	0.314
CTGCCTTA	-0.212
ATCGGATA	0.223
CACATTGC	-0.104
CAAAAGAC	-0.0803
ACTATATG	0.155
TTAGTGAA	-0.0194
AGAATCGG	0.0146
CAAGGCCC	-0.134
GAGGATGC	-0.155
GATGCCCA	-0.0522
TACCAGGA	-0.0405
AACCTCAG	0.0132
AAGCAAGG	-0.0445
ATGTAGCA	-0.115
TAAAGTCA	0.0294
GGAAGCAC	-0.0722
AGGGGAAT	-0.226

Sequence	PBM E-score
CGACTCAC	0.0192
CATATCCC	-0.029
CTAGAGAA	-0.0312
CTTAGAGA	-0.0866
CGCAAAAG	-0.0214
TATTGCAA	0.127
CGTACCTA	0.376
AAACAACT	-0.205
CGGTCAGC	-0.00946
AAATTAGC	0.0443
CACCTCCC	-0.174
GTATATCA	0.316
GCCGAGCA	-0.092
AAAGAGGA	-0.308
AGAAGGGA	-0.403
GGAGGTTA	-0.0978
ACGGCCGC	0.193
GGAAGGGA	-0.298
CGAGTACC	0.171
AGGCGCAC	-0.119
CACTTCAA	-0.0335
AATGATAC	0.163
ATACTGTA	0.117
CATTTGCC	-0.258
GACGTCTA	-0.16

Sequence	PBM E-score
ACAACCGG	-0.0829
TTCTGAAA	-0.116
CTTTACCC	-0.00452
AGGGTGAA	-0.0793
CATATTCA	-0.0449
CGGCATGA	0.152
CACTGATC	-0.202
CGCCCTTA	-0.0749
CCTGAAAC	-0.00472
CTCTAGGC	-0.269
CCGGACGG	-0.22
GGAGACCA	-0.347
CTGCGTGC	-0.075
CCCTGCTC	-0.254
AGTCGTAT	0.467
CGACCCTA	0.0368
CTTAAATA	-0.0688
GGTGACCA	-0.176
GGCGGACA	-0.0948
ACTCCCCG	-0.0405
AATTGCCG	0.0801
GCCAGTTA	0.0528
ACCCATTA	0.102
GCGTATCC	0.2
CAAGTGTG	-0.243

Sequence	PBM E-score
AAGGGGCT	-0.148
GTGCTTGA	0.0959
CCCACGCG	-0.126
CGAACACG	0.19
GGCTTGGA	-0.151
CCGATGCG	-0.034
CGGTACGA	0.474
GATGGTAA	0.0128
CGACGTCG	0.262
GACAGAGA	0.0558
GATTATCA	-0.108
AGTTGGCG	-0.0259
CGAAGTCG	0.253
ACCATAGG	-0.116
GAGTTAGA	-0.202
AATAAAAA	0.0789
CGCGTTTA	0.415
AAGGAGAC	-0.286
AGGTAGCA	-0.204
GGTAATAA	0.127
AGCAATAT	-0.0978
AGAGTCAA	-0.308
CTAATTAC	0.0177
CGAAGCCG	-0.0199
ACATGCTA	-0.235

Sequence	PBM E-score
CATGGGAA	-0.0246
ATGTACGG	0.373
CTTGTGGA	-0.291
CTTCCTGC	-0.402
CAGTGCTA	-0.0362
AAATTAAG	-0.0662
CTATAACC	0.157
CCATGCGG	-0.196
AGTTATTA	0.0498
AGCCTGTG	-0.207
ATCTCTAC	-0.00014
CACTGCCG	-0.093
GACTTTAA	-0.0609
GTCATGCA	-0.237
CCCCCACG	-0.275
ACATCGGA	0.18
AAAATACA	0.00883
CGAATAGC	0.213
GAAGGGCA	-0.21
CAGTCACC	-0.265
ACCTTGTG	-0.0669
ATAACAAA	-0.00968
ACAACTTA	-0.00056
AGACAGGG	-0.226
GTCCGTTA	0.206

Sequence	PBM E-score
AAGTAGCA	-0.121
CCTGTCAG	-0.255
ACTGCGCC	-0.147
ATGGAACC	-0.133
ACGGGTCT	0.0102
AGGATTTC	-0.151
ATAATGCC	-0.121
TACTCTGA	-0.0377
CATTTCCC	-0.0794
CGTCCTAA	-0.121
GCGTGCAC	-0.0519
CGCGTTAC	0.195
GACCTAGA	-0.0861
CATAACGG	-0.244
GTTAAAAC	0.195
TTCTAAAA	0.0341
AAGATGCC	0.00959
CTCCAAAG	-0.0116
AGGGGAAC	-0.0501
ACTTTAGC	-0.00056
CCTACTCG	0.058
CATAAACC	-0.075
AGGTATGG	-0.119
ATGTCTAC	0.021
AAAAAACT	0.028

Sequence	PBM E-score
GATACATC	-0.00058
ATGTTGGA	0.0262
GCTTTCCA	-0.167
GGTTTTCA	0.133
ATGTCGGG	-0.0783
CAGATCGA	-0.0705
AGGCCGAG	-0.156
TGGCTGAA	-0.197
GCACGAAC	0.25
CCATCTAA	-0.123
GGAATCAC	-0.101
AGAGCACG	-0.0743
AACACTAA	0.00496
AACAACTG	-0.191
GGAAATGA	-0.0982
GATAAGGA	-0.11
AATCACGT	0.221
CGCTAGCA	-0.159
AGCCATGC	-0.243
AGATGGGG	-0.442
AACTTAGA	0.00735
ACGAGCGT	0.386
CGTCTGGA	-0.122
AGCTCACA	-0.0816
CACTAGAC	-0.107

Sequence	PBM E-score
ACTGCTAA	-0.233
ATAGTGCA	0.0852
GGATCCTA	-0.011
AGCTTTAT	-0.0666
GACATTGA	0.107
AAATAGCA	-0.186
CTCGCGGA	-0.0694
CCATCCAG	-0.251
ATTTCCAA	-0.00535
GATGCAGA	-0.192
CTAACGAG	0.343
CCTGAACG	0.394
CCAACCGA	0.188
AGGCCCCA	-0.0988
ACCCCTAA	-0.147
ACAAAGGT	-0.035
ACAAACGT	0.0906
ACACACAA	-0.019
CGAGCGCC	0.199
CGAGGACC	0.25
AGCTGAGG	-0.174
CCGGTTCG	0.0888
GGTTCCAC	-0.202
CGCCCGGA	-0.196
CACTGCAA	0.034

Sequence	PBM E-score
CCATAAGG	-0.209
TAAGGTCA	-0.264
AATCGGCG	-0.0419
ACGTCGCT	0.182
ACGTAGAA	0.167
TGAATCAA	0.0171
ATCATCTC	-0.0541
GTTCAACA	0.0945
AAACACCA	-0.157
ACGGCCCA	0.147
CAGTCTAG	-0.0815
AGTTTCCG	0.178
ATTGGGCA	-0.212
CTAGGTCA	-0.214
ATCGCTGG	-0.199
CCCATCAA	0.0682
TGCTGCCA	-0.146
CACCTTCC	-0.0971
ATTCCACA	0.0345

Reference: the supplement of paper PMC3334620
